PubChem BioAssay AID2100 (National Center for Advancing Translational Sciences (NCATS), 2009)
Screen size: about 300,000 compounds; about 1,200 (0.4%) were called active. This list was built around the results that the source calls inconclusive (neither active nor inactive); the mix of calls is not that of the screen. Calls come from the whole dose curve; as a rule, active = well fitted inhibition curve with a large enough effect; inconclusive = small, poorly fitted or top-dose-only effect, or another doubt; inactive = no such curve, though single readings can be large or run the other way. A potency beside an inconclusive call is a rough fit, not a confirmed value.

These compounds were tested against Lysosomal alpha-glucosidase (Homo sapiens) (UniProt P10253) (assay: qHTS Assay for Inhibitors and Activators of Human alpha-Glucosidase Cleavage of Glycogen). Settings: recombinant GAA, glycogen substrate, Amplex Red glucose oxidase fluorescence; activity change, negative = inhibition: at 76.4 µM (top of the series) unless noted.
How it was run: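 Recombinant human enzyme (4 nM); glycogen substrate; 37 C, 40 min, pH 5.0. Readout: coupled glucose oxidase/Amplex Red fluorescence.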
Potency is the fitted concentration of half-maximal effect.
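Throughout, for activity change, negative = inhibition: 0% = full enzyme reaction and -100% = no-enzyme basal signal.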

Row | Structure (SMILES) | Potency | activity change, negative = inhibition
1 | NC(=S)N/N=C/c1c[nH]c2ccccc12 | inconclusive: 35.5 µM [inhibitor, partial curve] | 
2 | O=C(O)CN1C(=O)C2C3CC(C2C1=O)C1C(c2ccccc2)c2sc(=O)[nH]c2SC31 (configuration not stated) |  | inactive: -13.1%
3 | CCC/C=N/Nc1nnc(Cc2ccc(OC)c(OC)c2)c(=O)[nH]1 | inconclusive: 44.7 µM [inhibitor, single point] | 
4 | O=c1c(O[C@@H]2O[C@H](CO)[C@H](O)[C@H](O)[C@H]2O)c(-c2ccc(O)c(O)c2)oc2cc(O)cc(O)c12 | active: 6.31 µM | 
5 | CCC(C)Sc1nc(O)c(Cc2ccccc2)c(=O)[nH]1 (configuration not stated) | inconclusive: 56.2 µM [inhibitor, partial curve] | 
6 | CCC(C)Sc1nnc(CNS(=O)(=O)c2ccc(F)cc2)n1C (configuration not stated) | inconclusive: 11.2 µM [activator, single point] | 
7 | O=C(CN1C(=O)COc2ccc(S(=O)(=O)N3CCOCC3)cc21)N1CCN(c2ccccc2F)CC1 | inconclusive: 11.2 µM [inhibitor, single point] | 
8 | Nc1nc2ncc(CNc3ccc(C(=O)N[C@@H](CCC(=O)O)C(=O)O)cc3)nc2c(=O)[nH]1 | inconclusive: 50.1 µM [activator, single point] | 
9 | O=C(NCc1cccc(Cl)c1)NCc1noc2ccccc12 | inconclusive: 50.1 µM [inhibitor, single point] | 
10 | COC(=O)c1cc(NC(=O)c2ccco2)ccc1N1CCOCC1 |  | inactive: 10.8%
11 | CC(C)=NN/C(N)=N/C(=S)Nc1ccc(C)cc1 | inconclusive: 7.94 µM [inhibitor, partial curve] | 
12 | c1ccc(N2CCN(c3ncccn3)CC2)cc1 |  | inactive: 7.96%
13 | CCOc1ccc2c(c1)c(=O)c(S(=O)(=O)c1ccc(C)cc1)cn2Cc1ccccc1Cl | inconclusive: 1 µM [inhibitor, full curve, poor fit] | 
14 | CCCCC1=CC2=CC(=O)C(C)(OC(=O)CC)C(=O)C2=CN1CCc1c[nH]c2ccccc12 (configuration not stated) |  | inactive: 5.53%
15 | CC(C)(C)C1CCC(=NNc2ncc(C(F)(F)F)cc2Cl)CC1 (configuration not stated) | inconclusive: 31.6 µM [inhibitor, partial curve] | 
16 | CC(=O)N1CCN(c2ccc(NCc3ccc(C)cc3)cc2)CC1 | active: 19.8 µM | 
17 | COc1cc(/C(C)=N/NC(=O)Cc2c(C)[nH][nH]c2=O)ccc1O | inconclusive: 15.8 µM [inhibitor, partial curve] | 
18 | CN(C)c1ccc(NC(=S)NCC2CCCO2)cc1 (configuration not stated) | inconclusive: 39.5 µM [inhibitor, single point] | 
19 | C/C(=N\NC(=O)CSCc1ccc(Cl)cc1)c1ccc2c(c1)OCCO2 | inconclusive: 3.95 µM [inhibitor, single point] | 
20 | COc1cc(/C=N/NC(=O)CCc2ccccc2)ccc1O | inconclusive: 31.6 µM [inhibitor, partial curve] | 
21 | Cc1c(NC(=O)Nc2ccccc2Cl)sc(=S)n1C | inconclusive: 50.1 µM [inhibitor, single point] | 

Row | Structure (SMILES) | Potency | activity change, negative = inhibition
22 | O=C1OCC2OC(O)C(O)C(O)C2OC(=O)c2cc(O)c(O)c(O)c2-c2c(O)c(O)c3oc(=O)c4c(c(O)c(O)c5oc(=O)c2c3c54)-c2c1cc(O)c(O)c2O (configuration not stated) | inconclusive: 1.41 µM [inhibitor, full curve] | 
23 | O=C(NNC(=S)NC1CCCCC1)c1ccc(Cl)s1 | active: 50.1 µM | 
24 | Cc1cs/c(=N\N=C2CCCCC2)n1Cc1ccco1 | inconclusive: 31.6 µM [inhibitor, partial curve] | 
25 | Cc1ccc(C(=O)NNc2c3ccccc3nc3ccccc23)cc1 | inconclusive: 8.91 µM [inhibitor, partial curve] | 
26 | S=c1[nH]nc(Cc2ccc(Br)cc2)n1/N=C/c1ccc(Cl)cc1 | inconclusive: 50.1 µM [inhibitor, single point] | 
27 | COC(=O)c1cccc(CN2C(=O)SC(Nc3ccc(C)cc3)C2=O)c1 (configuration not stated) | inconclusive: 12.6 µM [inhibitor, partial curve] | 
28 | COc1ccccc1OC(C)c1nnc(SCC(=O)Nc2c(C)n(C)n(-c3ccccc3)c2=O)n1-c1ccccc1 (configuration not stated) | inconclusive: 11.2 µM [inhibitor, single point] | 
29 | CC1=NNC(=O)C1CC(=O)N/N=C/c1sccc1C (configuration not stated) | inconclusive: 31.6 µM [inhibitor, partial curve] | 
30 | CCOc1ccc2nc(NC(=O)c3nc(SC(C)C)ncc3Cl)sc2c1 |  | inactive: -1.59% [at 76.3 µM]
31 | COc1cccc(/C=N\NC(=O)C2=NNC(=O)C2C)c1O (configuration not stated) | inconclusive: 39.8 µM [inhibitor, single point] | 
32 | Nc1ccc(C(=O)Nc2ccc(NC(=O)c3ccco3)c(O)c2)cc1 | inconclusive: 35.5 µM [inhibitor, single point] | 
33 | CCc1ccccc1NC(=O)CCc1c(C)nc2cc(-c3ccccc3)nn2c1C | inconclusive: 11.2 µM [inhibitor, single point] | 
34 | COc1ccc(-c2nsc(NC(=O)c3ccccc3Br)n2)cc1 |  | inactive: 6.06% [at 76.3 µM]
35 | COc1cc(/C=N/Nc2ccc3ccccc3c2)ccc1OC(=O)c1ccco1 | inconclusive: 31.6 µM [inhibitor, partial curve] | 
36 | Cc1cccc(NC(=S)NNC(=O)c2nn(C)cc2Cl)c1 | inconclusive: 24.9 µM [inhibitor, partial curve] | 
37 | CC1=NN(Cc2ccccc2)C(=O)C1C(c1ccccc1)C(C#N)C#N (configuration not stated) | inconclusive: 24.9 µM [inhibitor, single point] | 
38 | CC(=O)N1CCc2c(sc3c2c(=O)n(CCc2ccccc2)c(=O)n3Cc2ccc(F)cc2)C1 | inconclusive: 7.94 µM [inhibitor, full curve, poor fit] | 
39 | CCc1ccc2c(c1)c1nnc(NN)nc1n2C | inconclusive: 22.4 µM [activator, partial curve] | 
40 | O=C(Nc1nc(-c2ccc(S(=O)(=O)N3CCCC3)cc2)cs1)C1COc2ccccc2O1 (configuration not stated) |  | inactive: 2.32%
41 | O=S(=O)(Nc1ccc(O)c(CN2CCCCC2)c1)c1ccccc1 | inconclusive: 50.1 µM [inhibitor, single point] | 
42 | CCCOC(=O)c1ccc(Oc2cn[nH]c2-c2ccc(O)cc2O)cc1 | inconclusive: 31.4 µM [inhibitor, partial curve] | 
